Over roughly 33,000 sequences, “E-score (-0.5 to 0.5)” has its median near -0.04; the highest 2% begin near 0.36. The list shows a part of the results.
target: T1, Hmlalpha2 (UniProt P0CY09); assay: PBM E-score (8-mer binding enrichment) (E-score (-0.5 to 0.5)); higher = stronger / more preferred TF binding; most listed sequences are background and not binding sites; conditions: protein concentration: 200 nM; construct: GST-full length
T1 sequence: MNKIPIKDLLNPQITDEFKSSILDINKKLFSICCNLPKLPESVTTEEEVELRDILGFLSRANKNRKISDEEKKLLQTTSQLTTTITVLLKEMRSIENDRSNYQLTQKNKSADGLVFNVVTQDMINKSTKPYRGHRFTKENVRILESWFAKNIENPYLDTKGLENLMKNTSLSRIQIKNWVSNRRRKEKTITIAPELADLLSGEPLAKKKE
Outline: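 Using PURExpress in vitro transcription/translation, GST-tagged yeast transcription factors were made in full-length or DNA-binding-domain form. These were applied at about 100-200 nM to double-stranded universal all-10-mer Agilent arrays, and bound protein was detected with fluorescent anti-GST. Scans were normalised with masliner before the Universal PBM Analysis Suite assigned E-scores to ungapped eight-base words pooled with their reverse complements.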

| Sequence | PBM E-score |
| --- | --- |
| CCCCAACC | -0.00111 |
| CCCGGGAG | -0.273 |
| GTGTCAGA | 0.134 |
| ACTGCTCT | -0.114 |
| GTACTGCA | 0.0337 |
| GACCAATC | -0.0482 |
| TCCCTGCA | -0.119 |
| GACGTGCC | -0.157 |
| ATGGCCTA | -0.136 |
| AGGGGGTC | -0.268 |
| GTTGAGAA | 0.0596 |
| ATTAACGG | -0.00314 |
| AGCATCGA | -0.0691 |
| AACATCTT | -0.0095 |
| TGTGCGAA | -0.0881 |
| ATGCAAGA | 0.0433 |
| ACCAGGCG | -0.205 |
| GAAGTCTA | -0.303 |
| AGGATAAT | 0.0118 |
| GCAATGAC | -0.0935 |
| CGGTAGTC | -0.242 |
| TCCCACAA | -0.152 |
| CCATTAAG | -0.0773 |
| AAAACATT | 0.242 |
| AGAAATAT | 0.203 |

| Sequence | PBM E-score |
| --- | --- |
| CGGAGTAA | 0.101 |
| GACGTGGC | -0.0942 |
| CGTCGAGA | 0.0934 |
| AATAACTA | 0.194 |
| TAATAAGA | 0.145 |
| CTTATTCA | -0.108 |
| ATTAAAAT | 0.164 |
| ATCCCTGG | -0.157 |
| CGGGACTC | -0.163 |
| GCTTTGGA | 0.0733 |
| AACATCGC | 0.139 |
| AATTGGAT | 0.0519 |
| CAACTCCA | -0.13 |
| AAACACGC | 0.426 |
| GACCTCTA | -0.116 |
| CAAGTAGG | -0.0322 |
| GACGATCA | -0.17 |
| GTCATAAA | 0.0969 |
| ACGTCGCG | 0.15 |
| CTGACTCA | -0.179 |
| CAGTACGC | 0.001 |
| ACTAGATA | 0.14 |
| CAATGTGG | 0.00899 |
| ATAGTTTC | -0.178 |
| ATAAAGTG | 0.0424 |

| Sequence | PBM E-score |
| --- | --- |
| CCTAGGAA | -0.125 |
| GATGTCTA | 0.0462 |
| CTGAAGCC | -0.0445 |
| CCTTTACG | 0.223 |
| AATGGAAT | 0.0921 |
| AAGTTATT | 0.24 |
| CAGTCGAA | -0.144 |
| GATCTGAA | -0.205 |
| ACCTTCAT | -0.0921 |
| GGCCATCA | -0.139 |
| ACGCTAAA | 0.11 |
| GGCGAGAC | -0.169 |
| ATTTTGTC | 0.193 |
| CCTTTCCA | -0.192 |
| CGATAACC | -0.144 |
| GCCTCTAA | -0.179 |
| GGTCAGAC | -0.258 |
| ATCCATCA | -0.0947 |
| CAGTGCCC | -0.177 |
| AATACTCC | -0.0353 |
| GAACTAAC | 0.0988 |
| CGTCGGGC | -0.386 |
| CTTATCCC | -0.164 |
| ACTGAGGC | -0.0961 |
| AACTGGAT | -0.0477 |

| Sequence | PBM E-score |
| --- | --- |
| AATCTATC | -0.0178 |
| GACCTTTA | 0.0506 |
| GCACGGGA | -0.229 |
| CTGCCCGC | -0.0703 |
| CGGTTATA | -0.0823 |
| GAAGCGTA | -0.0924 |
| GGCCGCGA | -0.243 |
| AGGAATTG | 0.0127 |
| CAGCTGAA | -0.0535 |
| ATCCCGGG | 0.0307 |
| CCGAGTAG | -0.137 |
| ATCTCCGA | -0.0813 |
| CGCACAAC | 0.0906 |
| TCTTCACA | 0.227 |
| ATGAAGCC | 0.0472 |
| ACTGAGTC | -0.0808 |
| CACCTAGC | -0.283 |
| GTGATATA | -0.105 |
| TGTCACAA | 0.196 |
| CTATACCC | -0.164 |
| CTTACCAA | 0.166 |
| ACTAACCT | 0.169 |
| GTACCGCA | 0.0483 |
| AATGAATA | 0.153 |
| CGGACGAG | -0.162 |

| Sequence | PBM E-score |
| --- | --- |
| GCCTGTCC | -0.296 |
| CCAACACG | 0.375 |
| GATGCTGA | -0.234 |
| GACGCTAC | 0.0806 |
| ACGGAAAG | -0.0789 |
| ACGACCCC | -0.127 |
| CTACTAGC | 0.0608 |
| GGCCCCCA | -0.323 |
| ACTCAAAC | 0.101 |
| AACAATTG | 0.0127 |
| GGGGGGTA | -0.246 |
| CTCAGCGC | -0.135 |
| GACTTACC | -0.187 |
| ACAACAGT | -0.0464 |
| AACGGCAT | 0.0556 |
| CAGATGAC | -0.022 |
| TCCGCAGA | -0.148 |
| ATCCGCGC | -0.185 |
| AATCTCGG | -0.125 |
| CGTGAGAC | -0.126 |
| GATCAACA | 0.341 |
| CACGAGCA | -0.0152 |
| AAACCTGG | -0.097 |
| AAATCACG | 0.155 |
| CCCTCAGC | -0.344 |

| Sequence | PBM E-score |
| --- | --- |
| CCCGCGGC | -0.141 |
| GGCCTCAA | 0.0694 |
| AGCCCCGG | -0.262 |
| CATACATG | 0.382 |
| AGAGGAAG | -0.206 |
| GGGCGCGA | -0.164 |
| CTCCAAGC | -0.132 |
| CAGCCTCC | -0.332 |
| ACTCGCAA | 0.203 |
| ATGTTACG | 0.351 |
| GGGTTTTA | 0.122 |
| ACGCCCGG | -0.193 |
| CTTTACTC | 0.187 |
| AAGTCTTG | -0.0403 |
| CGGGGCTA | -0.0915 |
| ATAAAGTA | 0.14 |
| AAAAGCTA | 0.052 |
| CACCCTCA | -0.229 |
| AGTACCCA | 0.0134 |
| CTGCTCCC | -0.218 |
| TCCTTAAA | -0.088 |
| ATTGCGTA | 0.296 |
| AAGTGGCC | -0.179 |
| AAGTACTA | 0.233 |
| CATCCGCG | 0.0155 |

| Sequence | PBM E-score |
| --- | --- |
| ATAGCTAT | -0.127 |
| AATGACGT | 0.0905 |
| TGATCCAA | 0.0278 |
| ACTATACA | 0.213 |
| CGAGGGTA | -0.233 |
| TAATATGA | 0.0958 |
| CGTAATGA | 0.317 |
| ATAAGGAT | 0.0918 |
| ACAGCTTA | 0.0827 |
| CTTGAAGA | -0.124 |
| GCTGGTAA | -0.0507 |
| CGGCATCA | -0.0398 |
| CTCGAGAA | -0.0363 |
| GTAAAACA | 0.344 |
| AGTAGTTA | 0.117 |
| AGTCGGAT | -0.0674 |
| ATGCTAGG | -0.0712 |
| CGCTATGA | 0.0127 |
| CGGCGTCC | -0.0604 |
| ACCGCTAC | -0.134 |
| AGTCGCCC | -0.198 |
| CGAGCCCA | -0.079 |
